# Experimental data taken from ChEMBL document CHEMBL1201862, “PubChem BioAssay data set” (2004).
#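 Exposure lasted 48 hours, with cells grown in 96-well plates and compounds tested at five concentrations. GI50: concentration for 50% inhibition of growth.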 Activity calls are given as the source filed them. Rule as the data show it: active = GI50 up to about 1.1 µM and inactive = higher.
# Tested on: NCI-H322M
# Test: DTP human tumour cell line panel, 48 h
row,Structure (SMILES),GI50
1,CCC1c2[nH]c3ccccc3c2C[C@H]2C(=O)NC(CCC(=O)OC(C)(C)C)C(=O)N12 (some centres undefined),inactive: > 100 µM
2,Oc1cc(-c2ccc[nH]2)nc2cc3c(cc12)OCO3,inactive: 43.9 µM
3,Cn1c(=O)c2nc(SCc3ccccn3)[nH]c2n(C)c1=S,inactive: > 100 µM
4,O=C(O)CSSCC(=O)O,inactive: > 100 µM
5,ClCc1nc2ccccc2[nH]1,inactive: > 100 µM
6,CC(C)(CCC(C)(C)c1ccccc1)c1ccccc1,inactive: 19.8 µM
7,Cc1cn(C2OC(CO)C(O)C2F)c(=O)[nH]c1=O (centres undefined),inactive: > 100 µM
8,Oc1ccc2ccccc2c1-c1nnc(CCCCCCCCc2nnc(-c3c(O)ccc4ccccc34)o2)o1,inactive: 1.88 µM
9,O=c1cccccc1NCCCCCCCNc1cccccc1=O,inactive: > 100 µM
10,COc1cc2ccc1OCc1cccc(n1)COc1ccc(cc1OC)/C=N\CCNCC/N=C\2,inactive: > 100 µM
11,Cc1c(-c2coc(-c3ccc([N+](=O)[O-])cc3)n2)c(=O)n(-c2ccccc2)n1C,inactive: > 100 µM
12,O=c1c2cccnc2ncn1CCN1CCCCC1,inactive: > 100 µM
13,COc1ccc(/C=C2\C(=O)N(C(=O)c3ccc(NC(C)=O)cc3)N=C2C)cc1OC,inactive: > 100 µM
14,N#Cc1c(N)[nH]c(=S)c(C#N)c1-c1cccc(Cl)c1,inactive: 37.9 µM
15,O=c1c(-c2c(-c3ccccc3)oc3ccc(Cl)cc3c2=O)c(-c2ccccc2)oc2ccc(Cl)cc12,inactive: > 100 µM
16,BrC(=C(c1ccc(OC2CCCCO2)cc1)c1ccc(OC2CCCCO2)cc1)c1ccccc1 (centres undefined),inactive: > 100 µM
17,O=c1oc2ccccc2n1CCN1CCCCC1,inactive: > 100 µM
18,COC(=O)[C@]1(C)CC[C@]2(C)CC[C@]3(C)C4[C@H]5Oc6c(cc7c(c6C)CCC6[C@@]7(C)CC[C@@]7(C)C8[C@](C)(CCC[C@@]8(C)C(=O)OC)CC[C@]67C)O[C@H]5c5c(cc6c(c5C)O[C@@]5(C)C7=CC=C8[C@@](C)(CC[C@@]9(C)[C@@H]%10C[C@](C)(C(=O)OC)CC[C@]%10(C)CC[C@]89C)C7=CC(=O)[C@@]5(O)O6)[C@]4(C)CC[C@@]3(C)C2C1 (some centres undefined),inactive: > 12.5 µM
19,Cc1n[nH]c(=O)n1/N=C/c1c[nH]c2ccccc12,inactive: > 100 µM
20,CCCCCCN(C(=O)Oc1ccccc1)C(C#N)c1ccccc1 (centres undefined),inactive: > 100 µM
21,O=C(NCCNCCO)N/N=C/c1ccccc1,inactive: > 100 µM
22,COc1cc2c(c(OC)c1OC)C(=O)[C@H]1OC(=O)N[C@@H]21,inactive: > 100 µM
23,COc1c(C)c(OC)c2c(c1O)[C@@H]1[C@@H]3Cc4c(OC)c(C)c(OC)c(O)c4[C@H](CNC(=O)c4ccc5ccccc5n4)N3[C@@H](C#N)[C@H](C2)N1C,active: 0.000156 µM

row,Structure (SMILES),GI50
1,CN(CCCNC(=O)c1cn(C)c2c1ccc1cc(Cl)c(Cl)cc12)CCCNC(=O)c1cn(C)c2c1ccc1cc(Cl)c(Cl)cc12,inactive: 14.3 µM
2,NCCCN(CCCCN(CCCN)CCCc1ccccc1)CCCc1ccccc1,inactive: 5.64 µM
3,Cc1cc(C)c(N[S+]([O-])c2cccc(Cl)c2)c(C)c1 (centres undefined),inactive: 69.5 µM
4,CC(=O)Nc1ccc2cc(C)c(O)nc2n1,inactive: > 100 µM
5,O=C(CC(=O)N1N=C(N2c3ccccc3Sc3ccccc32)CC1c1ccccc1)Nc1ccc(Cl)cc1 (centres undefined),inactive: > 100 µM
6,Clc1ccc2oc(CCc3ccccc3)nc2c1,inactive: > 100 µM
7,O=C1c2c(Br)sc(Br)c2[C@@H](O)[C@H]1O,inactive: 16 µM
8,Cc1cc(=O)n(-c2c(C)cccc2Cl)c(/C=C(\O)c2ccncc2)n1,inactive: > 100 µM
9,COc1ccccc1-n1c(NN)nc2ccc(Br)cc2c1=O,inactive: 33.4 µM
10,CC(=O)O[C@H]1[C@@H](OC2CCCC2(c2ccccc2)c2ccccc2)O[N+]([O-])=C[C@@]12COCc1cc3c(cc12)OCO3 (some centres undefined),inactive: 7.94 µM
11,CN(C)C(=S)C(Cl)(c1ccccc1)c1ccccc1,inactive: > 100 µM
12,O=[PH](O)c1cc2c3ccccc3ccc2c2ccccc12,inactive: > 100 µM
13,Brc1ccc(C2CC3(c4ccccc4)ON=C(c4ccccc4)N3c3ccccc3S2)cc1 (centres undefined),inactive: > 100 µM
14,CC(C)(C)c1cc2c3c(c1)C(C(F)(F)F)(C(F)(F)F)O[Te]3(C)OC2(C(F)(F)F)C(F)(F)F,inactive: > 100 µM
15,O=C(Nc1ccccc1)c1cc(S(=O)(=O)Nc2n[nH]c(=O)[nH]2)c(SSc2cc(Cl)c(C(=O)Nc3ccccc3)cc2S(=O)(=O)Nc2n[nH]c(=O)[nH]2)cc1Cl,inactive: > 100 µM
16,S=c1sc2c(n1-c1ccccc1)N=CNC2S (centres undefined),inactive: > 100 µM
17,CC(=O)OCC(OC(C)=O)C(OC(C)=O)C(OC(C)=O)C(/C=N\Nc1nc2ccccc2c(=O)[nH]1)=N/Nc1nc2ccccc2c(=O)[nH]1 (centres undefined),inactive: > 100 µM
18,COC(=O)c1c/c(=N\NC(=O)CC(=O)Nc2ccc(C)cc2)c2ccccc2o1,inactive: > 100 µM
19,CNC(=O)C(C)C1CCC2(C)C=CC(=O)C(C)=C2C1O (centres undefined),inactive: > 100 µM
20,CN(C)C(=S)/N=c1\ssc(=S)n1Cc1ccccc1,active: 0.508 µM
21,C1CCC2C(C1)CCCC2NC1=NCCO1 (centres undefined),inactive: > 100 µM
22,Cc1cn(C2CC(O)C(Cn3nncc3Cn3ccc(=O)[nH]c3=O)O2)c(=O)[nH]c1=O (centres undefined),inactive: > 100 µM
23,Cc1cc(NC(=O)NC(=O)c2ccccc2[N+](=O)[O-])ccc1Oc1ncc(Cl)cn1,active: 0.105 µM

row,Structure (SMILES),GI50
1,CCOc1cc2c(cc1O)C=C[C@@H]1[C@@H]2CC[C@]2(C)[C@@H](O)CC[C@@H]12,inactive: 3.52 µM
2,CCC(=O)N1C(=O)OCC1C(C)C (centres undefined),inactive: > 100 µM
3,O=C(CCC(=O)Nc1ccc(Cl)c(Cl)c1)CC(=O)c1ccc(F)cc1,inactive: > 100 µM
4,Nc1ncc2c(n1)-c1ccccc1OC2N1CCOCC1 (centres undefined),inactive: > 100 µM
5,N#Cc1c(Cl)nc2ccccc2c1N=[N+]=[N-],inactive: 3.42 µM
6,Cc1c(C)c(C)n(C2OC(CO)C(O)C(O)C2O)c(=S)c1C#N (centres undefined),inactive: > 100 µM
7,Cc1cc2c(CC(=O)O)n[nH]c2c(C(=O)O)c1C,inactive: > 100 µM
8,O=C(O)c1cccc(S(=O)(=O)NN2C(=O)CSC2c2c(O)ccc3ccccc23)c1 (centres undefined),inactive: 23.5 µM
9,CCOc1ccc(N2C(=O)C3c4[nH]c5ccccc5c4C4CCC(C(C)(C)C)CC4C3C2=O)cc1 (centres undefined),inactive: > 100 µM
10,NS(=O)(=O)c1ccc(Nc2c3ccccc3nc3c(C(=O)NC(CO)(CO)CO)cccc23)cc1,active: 0.151 µM
11,N#Cc1nn(C(N)=O)c(N)c1C#N,inactive: > 100 µM
12,CN1C(=O)C2C=CC1C1CCC2N(C)C1=O (centres undefined),inactive: > 100 µM
13,CCCCCCCCc1cc2c(O)c(c1)Cc1cc(CCCCCCCC)cc(c1O)Cc1cc(CCCCCCCC)cc(c1O)Cc1cc(CCCCCCCC)cc(c1O)Cc1cc(CCCCCCCC)cc(c1O)Cc1cc(CCCCCCCC)cc(c1O)C2,inactive: > 100 µM
14,[O-][S+]1SC(=S)C2C=CC=NC21 (centres undefined),inactive: 27.6 µM
15,COc1ccc(-c2cc(N3CCN(c4ccc(Cl)cc4)CC3)c(C#N)c(=O)o2)cc1,active: 0.132 µM
16,NNC(=O)C1(NC(=O)c2ccccc2)C(c2ccccc2)C(c2ccccc2)=NN1c1ccccc1 (centres undefined),inactive: 38.6 µM
17,COc1cc2c(cc1OC)[C@H]1C(COC(=O)Nc3ccccc3)CN1CC2 (some centres undefined),inactive: 51.5 µM
18,Clc1cccc(-c2nnc(-c3nn(-c4ccccc4)c4nc5ccccc5nc34)o2)c1,inactive: > 100 µM
19,COc1cc2cc3c4c(cc(OC)c(OC)c4c2cc1OC)CCN3C(=O)OCCBr,inactive: > 100 µM
20,Cc1cccc(NS(=O)(=O)c2ccc3c(c2)OCCOCCOCCOCCO3)c1,inactive: > 100 µM
21,CCCc1ccc(OCC(=O)N/N=C/c2c(-c3ccccc3)[nH]c3ccccc23)cc1,inactive: 22.5 µM
22,C/C(=N\O)c1ccc2ccc3ccccc3c2c1,inactive: 34.4 µM
23,N#CC(C(=N/O)/C(=N/O)C(C#N)c1ccc(Cl)cc1)c1ccc(Cl)cc1 (centres undefined),inactive: > 100 µM

row,Structure (SMILES),GI50
1,CCOC(=O)C(Cc1cccn1C(=O)OC(C)(C)C)[N+](=O)[O-] (centres undefined),inactive: 31.6 µM
2,O=C1CNNC(Cn2nc(-c3ccccc3)c3ccccc3c2=O)=N1,inactive: > 100 µM
3,C=C[C@@H](C)[C@]1(C(=O)OC)CCCC12OCCO2,inactive: > 100 µM
4,CC1(C)CC(=O)C2=C(C1)N(c1ccccc1)C1(O)C=CC(O)=C3C(=O)c4ccccc4C(=O)C321 (centres undefined),inactive: 25.4 µM
5,CCc1ccccc1NC(=O)C1=C(C)NC(C)=C(C(=O)Nc2ccccc2CC)C1c1ccc2c(c1)OCO2,inactive: 39.9 µM
6,COC(=O)C1CC/C(=N\c2cccc(C(F)(F)F)c2)N1 (centres undefined),inactive: > 100 µM
7,CCOC(=O)C(=CNC(=S)c1ccncc1)C(=O)OCC,inactive: > 100 µM
8,N/N=C(/CC(O)(C(F)(F)F)C(F)(F)F)c1ccccc1,inactive: > 10 µM
9,COc1cccc(/N=N/C(=NNC(=O)c2ccc(C)cc2)c2ccc(N(C)C)cc2)c1,inactive: 95.9 µM
10,CC1=CC(=O)NCCN1C,inactive: > 100 µM
11,Nc1ncnc2sc(Nc3ccccc3)nc12,inactive: > 100 µM
12,N#CC12CC3(CCC1CCC1(C2)OCCO1)OCCO3 (centres undefined),inactive: > 100 µM
13,COc1ccc(C(C)NNC(=O)c2cc[n+]([BH2-]C#N)cc2)cc1F (centres undefined),inactive: > 100 µM
14,CCO[C@]12C[C@H](OC)[C@@]3(O)CC(C1[C@H]3OCc1ccccc1)C13C4C2[C@H](OC)C1[C@](COC)(CN4CC)[C@H](O)C[C@@H]3OC (some centres undefined),inactive: > 100 µM
15,C=C(C=O)CCCC(C)[C@@H]1CCC23CC12CCC1[C@@]2(C)CCC(OC(C)=O)C(C)(C)C2CC(OC2OC(COC(C)=O)C(O)C(O)C2O)[C@]13C (some centres undefined),inactive: 7.55 µM
16,COc1cc2c(c(OC)c1)C(C)=NC(C)C2 (centres undefined),inactive: > 100 µM
17,CC(=O)OC(C[C@H](C)[C@@H]1CC[C@]2(C)C3=CCC4C(C)(C)C(=O)CC[C@]4(C)C3CCC12C)C1OC1(C)C (some centres undefined),inactive: 19.9 µM
18,O=C1CCC(O)=C1O,inactive: > 100 µM
19,O=Cc1cc2c(o1)C(=O)c1ccccc1C2=O,inactive: 1.39 µM
20,Cc1ccnc2nc(-c3ccc(Cl)cc3)cc(O)c12,inactive: 4.94 µM
